# Measured values taken from publication PMC12136788.
# This is one part of the list.
# T1: UNK ZnF1-3 (human, UniProt Q9C0B0 31-174)
# T1 sequence: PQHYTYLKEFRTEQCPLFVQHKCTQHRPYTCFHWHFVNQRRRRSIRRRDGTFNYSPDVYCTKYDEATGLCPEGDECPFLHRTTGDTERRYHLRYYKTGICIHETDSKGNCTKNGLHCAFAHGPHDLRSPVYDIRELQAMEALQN
# B1: chr4:141302222:141302223:+_ENSG00000153130_ENST00000394201|hu_hu|FALSE|FALSE (ssRNA)
# RNA: GGGAGUUCUACAGUCCGACGAUCUCUUUUGCUUUUUGUGUCAGUUGUUUGAAAAACACUAGAAGCUGACAUGAGAUUUUCUAUAUAUUGUCCAAGAACUUGGUUUUCUGAUUUUAGCUUCAGAUUUUCUUCCUUAACUGCAUCCAACAGAGGAUUGAGCAUCA
# B2: chr16:94664741:94664742:+_ENSMUSG00000040785_ENSMUST00000117648|mus_hu|mus_mus_mus_hu_False|68_68 (ssRNA)
# RNA: GGGAGUUCUACAGUCCGACGAUCUGGUACUGAUCUUGGUAGCUGAUAUUCAGGAGAAAGGCUGGCCAAAGGUGUGUAUAUGCUGGUGUACUGGGGCAAACCUGGUAACACGUUUAUGUAUGCUGGCGGUGUCUGGGUGAUAUCCAACAGAGGAUUGAGCAUCA
# B3: chr2:179979976:179979977:-_ENSG00000187231_ENST00000335289|hu_mus|FALSE|FALSE (ssRNA)
# RNA: GGGAGUUCUACAGUCCGACGAUCCUGCAGCAGCUGUCUGCCAUAGUCGUAAGUACUCUGGGCAACAUCGACAAAUUUUCUGUGUUUUUCCAGUAAAACCUUUGUUUCCUGAGCAUCGUCACCCAGCCUGAUAUGGGUCUUCAGCAACAGAGGAUUGAGCAUCA
# B4: chr4:17845017:17845018:+_ENSG00000109805_ENST00000514176|hu_mus|hu_hu_hu_mus_False|38_38 (ssRNA)
# RNA: GGGAGUUCUACAGUCCGACGAUCGCUCUCUUAACUUGUAUCUUCAUUAAGGAACUCUGCAAGGUUAAGUUUACUUUUCUGUAGCGCAGCUGUUUUGCUCGUCUUGGGUAAUCUCAUCUUCAUUUCUGAUGGUGGUUCAUGAUCCAACAGAGGAUUGAGCAUCA
# B5: chr17:65740002:65740003:+_ENSG00000130935_ENST00000581375|hu_hu|hu_hu_hu_mus_False|68_108 (ssRNA)
# RNA: GGGAGUUCUACAGUCCGACGAUCAACCCGUUCUUGCUCCCUGGACGAACAGGAAGAUUCAUAUUAACUUUAUAAAAUAUCCAUCAAGUUAGGUGUGGUGGCCACACCUUUACUCCCAGCACUUUGGGAGGUGGAUCUCUGAGUCAACAGAGGAUUGAGCAUCA
# B6: chr3:169711627:169711628:+_ENSG00000008952_ENST00000337002|hu_mus|FALSE|FALSE (ssRNA)
# RNA: GGGAGUUCUACAGUCCGACGAUCCUAAAAACAUACCUUACAUGGUUUUUGUUUUACAAAUUUCAGUGUUGAGAAAUGUCUAAAUAAUAAGUAACAAUUAAAAUAAAAUGUUUUAUUUGUAAAUUAUGUACAGAAUACAUCUUACAACAGAGGAUUGAGCAUCA
# B7: chr1:150549822:150549823:-_ENSG00000143384_ENST00000369026|hu_mus|motif|central (ssRNA)
# RNA: GGGAGUUCUACAGUCCGACGAUCUAAAUACACAUGUUUUCACAGAUGCAUGUAGUUUGGUGGCUGGAGCUUUAAGAGUCCCCGGUUGCACUCACAAGGCUAUCUUAUUAGAUAUGCCAGACCAGCCCCUACUCCAGCAACACCCAACAGAGGAUUGAGCAUCA
# B8: 37063981_37065326_3669_CDS_ENSMUSG00000040565_ENSMUST00000099494|mouse|control|control (ssRNA)
# RNA: GGGAGUUCUACAGUCCGACGAUCUGUUUCCAUGGUAGCUAUUUUACUCAUGACACCUAUGCAACGAGCCGCCAUGUGCCUCACUGCAGUGCUGGGGUACUGAAGGCACAUAUAAAGAUGAGGCAAGUGCUGUACCAGCAAGGGCAACAGAGGAUUGAGCAUCA
# B9: chr7:149068622:149068623:-_ENSMUSG00000025139_ENSMUST00000001950|mus_hu|mus_mus_mus_hu_False|1_28 (ssRNA)
# RNA: GGGAGUUCUACAGUCCGACGAUCGUGAGGCCUCUGAGUGUGGCUUGUGGUCUGUCCUGGGUUAGAGUUGUUAAUAUCACGGAACAUACCAUCUAGAACGUUCCAGUCUGCCUGACUACCUUCAUUCCCAAUGGAGAAUCUGCUCAACAGAGGAUUGAGCAUCA
# B10: chr10:75008345:75008346:-_ENSG00000213551_ENST00000372950|hu_hu|FALSE|FALSE (ssRNA)
# RNA: GGGAGUUCUACAGUCCGACGAUCCUAUAUCUUAGUCACACACCAGAGUUAAGCCAUCUGUCUUUGCUCAUUUUUCCCUCUAUGGACAACAUAAUAUGUUGGGAAGGGCUUUCCAGGAGGGCAUAACCGGGAGAUGAAUCUUACCAACAGAGGAUUGAGCAUCA
# B11: chr11:86510823:86510824:-_ENSMUSG00000047126_ENSMUST00000103186|mus_hu|FALSE|FALSE (ssRNA)
# RNA: GGGAGUUCUACAGUCCGACGAUCAAUGGGUUGUGUCUCUGUAGCUUGUUCUUCUUCUUUUCUCAGUGAUUCUGAAGCAUCUAAUUUAUCCACCUUUGUCAAGUACUCCUUCAUGACCUGGAUGAAAUAGGGCAUGGCAAAAUCCAACAGAGGAUUGAGCAUCA
# B12: chrX:12193597:12193598:+_ENSMUSG00000031007_ENSMUST00000033313|mus_hu|FALSE|FALSE (ssRNA)
# RNA: GGGAGUUCUACAGUCCGACGAUCAUAUACUCCACAAGGCUAGUUUCUUCUUAGAUCAAUGUAGUAUUUUUAGUAUCCAUAUUAGCCCAUGUAGGUCAACAAACUUGCAGAAGAGGGUUAAAAAACAGCUGUCCUCUGUUACUCCAACAGAGGAUUGAGCAUCA
# B13: chr14:57521723:57521724:+_ENSMUSG00000021945_ENSMUST00000022511|mus_mus|motif|central (ssRNA)
# RNA: GGGAGUUCUACAGUCCGACGAUCUACAGGUUCAAUAAAAACAACGUCAUCAUCAUCUUCUACUGAUGAGUUCUGAAACUUACGGGAUCUAGACACUAAAGGAUUAGGUGGGCCACUAAAUGAAUUUCCUACGUUCGUGAGACUCAACAGAGGAUUGAGCAUCA
# B14: chr3:95733387:95733388:+_ENSMUSG00000015749_ENSMUST00000165307|mus_mus|motif|central (ssRNA)
# RNA: GGGAGUUCUACAGUCCGACGAUCCACACGGGUGUGGGAGAGAAAGAAAAGAAUAGCAAAUGGAGUCCGACGACUUGGGACGGACUCGGCUGCCCCCACCUCCGAGUCCACACACCCGCGCGCGCACACUCGGGCACGCACACACAACAGAGGAUUGAGCAUCA
# B15: chr8:13935169:13935170:+_ENSMUSG00000038365_ENSMUST00000043520|mus_hu|FALSE|FALSE (ssRNA)
# RNA: GGGAGUUCUACAGUCCGACGAUCUGGGUAAUGUUUCUGAAGUGCAAAGUACAUCAACUUCCAUUCAAUAUGACCUUUUUCUGAAAGGAUCAAAUGUCUACAAAACUGCUUUUCAGCAAAAUGGUACUGACAAAGCUUCUUCCACAACAGAGGAUUGAGCAUCA
# B16: chr8:95500983:95500984:-_ENSG00000164944_ENST00000437199|hu_hu|hu_hu_hu_mus_True|8_18 (ssRNA)
# RNA: GGGAGUUCUACAGUCCGACGAUCAGAACACAUCUAUCGAGUAAAGGACCGUACAUGACGGCCUCUACCACUGCCUCCACUAACAAACUUUCCUCUCGAGCCUCCACUGCCGCUAUUUUGCACUAGCCCAGGAAGGUCCAGGCCCAACAGAGGAUUGAGCAUCA
# B17: chr19:54062153:54062154:+_ENSMUSG00000024976_ENSMUST00000025932|mus_mus|motif|central (ssRNA)
# RNA: GGGAGUUCUACAGUCCGACGAUCUUGGCAGACGGUACUUUGGGGUCUUUCUCUUUAGAGUCUUUUUCUUUUCCUAAACGGCGGCUCAUGGUGACUCAAGCUUCACUCAAACACUACAUGAACUCCUCCUCCUCGCCAGCAAUCCAACAGAGGAUUGAGCAUCA
# B18: chr3:148802587:148802588:-_ENSG00000071794_ENST00000310053|hu_mus|hu_hu_hu_mus_False|28_78 (ssRNA)
# RNA: GGGAGUUCUACAGUCCGACGAUCUCCAACAACUUGUCCUCUCAUAGUUCCAAAUAAAACGGAAUCUUGCUCUUCAUCACUCGUUAGGAAGUCAUCUGGAGGAAUAACAUCUUGGAAUUCAAAAUGUGGCAAGAAAGUUGAGUACAACAGAGGAUUGAGCAUCA
# B19: 14087887_14088007_2097_3pUTR_ENSG00000147862_ENST00000380959|human|control|control (ssRNA)
# RNA: GGGAGUUCUACAGUCCGACGAUCAGAAAGUCAGUUAAAAUAUAUUGUCAUAGAGACAGAACAUCUAUUUCCCAGCGGACUUCAUGUAACAAAGGCUACGUUGCAGGGGCUGCGAUCUACCAUCAGUGAAAUAUCAUCGACCCUCAACAGAGGAUUGAGCAUCA
# B20: chr12:42180722:42180723:-_ENSMUSG00000036295_ENSMUST00000043884|mus_mus|motif|central (ssRNA)
# RNA: GGGAGUUCUACAGUCCGACGAUCCUGUAGGAGCAGAAUCUGUGUGUCGGCAGGCAAUCUGGCUGGGAAGUUUAAAAGCCCGGAAUCAUUACAGUCCACUGUCGAUGCUUCCAUAUAGAUGGAUCUCGGGGUAAACCAAGGCCUCAACAGAGGAUUGAGCAUCA
# B21: chr11:85008163:85008164:-_ENSMUSG00000018481_ENSMUST00000018625|mus_hu|FALSE|FALSE (ssRNA)
# RNA: GGGAGUUCUACAGUCCGACGAUCAGCAUUUUCAUACUGAUUCAUGUCAUAAUUAUAUAAAGAAGCCAGAUGUCCCACUGAAAGGGCUACUUCAUAAUCUUCUUGACCAAGAAGUUGUUCUUUAAUCUGAAUUGCUUUGAUGUGCAACAGAGGAUUGAGCAUCA
# B22: chr1:109605286:109605287:-_ENSG00000197780_ENST00000461096|hu_mus|hu_hu_hu_mus_True|38_98 (ssRNA)
# RNA: GGGAGUUCUACAGUCCGACGAUCAAGUUUCAGAGUAUUCAGUGAUCACCUCUUUAAAUGCAAUUAUCCUUAUUAUAAGCUAAGCAGAAUAAUAAUUUAAUACAUAGAGUGAACUACACACAAAGCCUGAACCGCGAAAAUGGUCAACAGAGGAUUGAGCAUCA
# Biological target: T1, UNK ZnF1-3
# Assay: nsRBNS (natural sequence RNA bind-n-seq); RBNS binding buffer (assumed for nsRBNS): 25 mM Tris pH 7.5, 150 mM KCl, 3 mM MgCl2, 0.01% Triton X-100, 500 ug/ml BSA, 20 U/ml SUPERase-In, 4 C; UNK is unkempt and MSI1 is Musashi-1; names of the RNAs are library labels; protein concentration not given here; high values mean tight binding
row,Binder,binding signal [enrichment R]
1,B1,0.297
2,B2,0.975
3,B3,0.914
4,B4,0.344
5,B5,0.844
6,B6,0.644
7,B7,0.626
8,B8,1.02
9,B9,0.684
10,B10,1.63
11,B11,0.718
12,B12,0.956
13,B13,1.02
14,B14,0.788
15,B15,0.661
16,B16,1.13
17,B17,0.76
18,B18,1.7
19,B19,0.766
20,B20,1.19
21,B21,1.68
22,B22,0.904
